# In the supplement of paper PMC3334620:
# In all, about 33,000 sequences were measured (“E-score (-0.5 to 0.5)”: median about -0.013, highest 2% from about 0.3 on). This is one part of the list.
# Target: T1, Msn1 (UniProt P22148)
# T1 sequence: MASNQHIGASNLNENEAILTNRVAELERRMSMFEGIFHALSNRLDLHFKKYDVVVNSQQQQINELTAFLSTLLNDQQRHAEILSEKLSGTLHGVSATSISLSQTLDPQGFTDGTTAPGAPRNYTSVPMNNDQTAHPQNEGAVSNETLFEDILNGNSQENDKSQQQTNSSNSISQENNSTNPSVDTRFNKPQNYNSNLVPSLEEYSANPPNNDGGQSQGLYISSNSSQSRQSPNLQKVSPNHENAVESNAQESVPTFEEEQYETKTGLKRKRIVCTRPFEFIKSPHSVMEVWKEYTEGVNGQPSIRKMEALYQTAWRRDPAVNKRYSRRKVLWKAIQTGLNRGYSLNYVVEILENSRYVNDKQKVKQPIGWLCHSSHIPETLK
# Assay: PBM E-score (8-mer binding enrichment) (E-score (-0.5 to 0.5)); higher = stronger / more preferred TF binding; most listed sequences are background and not binding sites
# Details: protein concentration: 200 nM; construct: GST-full length
# Procedure: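 Universal 'all 10-mer' protein binding microarrays (Agilent AMADID 015681) probed with GST-tagged S. cerevisiae TFs (full-length or DBD) made by in vitro transcription/translation (PURExpress), about 100-200 nM. Bound TF was detected with fluorescent anti-GST. Each ungapped 8-mer (which stands for itself and its reverse complement) is scored by the PBM enrichment score (E-score), a modified Wilcoxon-Mann-Whitney statistic from -0.5 to +0.5, computed with the Universal PBM Analysis Suite. Scale: above 0.35 generally sequence-specific binding.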
row,Sequence,PBM E-score
1,GCTACCTA,-0.134
2,GTTCCCTA,-0.0341
3,ACTACGAA,0.0645
4,GTGATGCA,-0.0684
5,TACGCGTA,0.0979
6,GTGGAGAA,-0.156
7,CCTTCGCA,-0.164
8,CCTGGAAA,0.128
9,CGGGTTGA,-0.255
10,AAACGGCC,0.0281
11,CTCAGCAC,-0.152
12,CACCAGCA,-0.124
13,ACGCAACA,-0.0272
14,GATCACCA,-0.0747
15,CCGGGGTC,-0.153
16,ATCAAGGC,-0.0496
17,ATGGCTGG,-0.202
18,ACATCCGT,0.149
19,CGCATGAG,-0.143
20,AACGTATA,-0.0249
21,ATTCGTCG,0.0922
22,ATTACAAT,0.155
23,TGGTGTAA,-0.121
24,AAACTACG,0.0553
25,AACTAAAA,0.127

row,Sequence,PBM E-score
1,CACTCCCA,-0.155
2,CGGAAAAC,0.0672
3,CATAGATC,0.0219
4,CCCCTCGC,-0.313
5,AATGCAGA,-0.069
6,CGTTCGAA,0.206
7,GCTGATAA,0.0332
8,GGACTACA,-0.00935
9,TAAAGCGA,0.045
10,ATGGGTAC,0.139
11,CACGATGC,-0.138
12,AGTTTAGG,-0.108
13,AACCATCT,-0.246
14,CTTCGTCC,-0.0108
15,GAGCGGTA,-0.156
16,ACAAAAGA,0.27
17,CGTCCGTC,-0.145
18,AGTCCGCA,0.00745
19,TCTTGTCA,0.238
20,AACGTCCG,0.0575
21,GATCACTA,-0.0238
22,CGATAATA,0.0341
23,TAAATTTA,0.228
24,CTCGTCAG,0.00059
25,ACATGCCA,0.15

row,Sequence,PBM E-score
1,CCGCTCTC,-0.318
2,ACCCAGAA,0.171
3,AAATTAGG,0.198
4,AGGACTAC,-0.122
5,AATAATTC,0.137
6,ATCCCTGC,-0.24
7,ATAATGAA,0.193
8,AAGAGTCC,-0.0838
9,ATTTAGGA,0.192
10,CAGGCACC,-0.189
11,GCCTCTGA,-0.252
12,CGCCTTGC,-0.0458
13,AGGATTTG,0.0283
14,TGACGTAA,-0.0403
15,ATAGCAGG,0.0376
16,CGCTGTAG,-0.0792
17,AACTCAGG,0.0371
18,CGTCTTAG,-0.101
19,AGGAGATA,-0.0904
20,GGGCCGTA,-0.23
21,GACCAGAC,-0.00479
22,ACGCGGAG,-0.118
23,CGGTCCCC,-0.169
24,GCTGTAAA,-0.0739
25,ATCGCAGC,0.134

row,Sequence,PBM E-score
1,CCGGCAGC,-0.105
2,AGGCTCCG,0.0964
3,ATACACAA,-0.0056
4,AAACGGGG,0.0857
5,CGTCTGGC,0.0411
6,CTACGCAG,-0.12
7,CACCAACA,-0.218
8,CATCTGTA,0.0231
9,AGTGGCTC,-0.158
10,AAGAACTA,0.0515
11,AGGTACAG,0.00868
12,TAGAAACA,0.0543
13,GATATTGA,0.0768
14,TCGAGTCA,-0.00232
15,GTCGCCAA,-0.146
16,GAATTTAA,0.0218
17,TCACAACA,0.158
18,CCGCCTGC,-0.203
19,CCACTCAA,-0.0179
20,ATATGACA,0.304
21,ATGTTGGG,-0.153
22,CATGGCGA,0.0998
23,CTACCACA,-0.181
24,TACAGCAA,0.00838
25,AACCCTTA,0.0341

row,Sequence,PBM E-score
1,CGGGTTCC,-0.143
2,AACTGAAC,-0.0479
3,AGGAAGGA,-0.311
4,CATAAAAC,0.096
5,CCAGCTGA,0.0261
6,GGGGGAGA,-0.263
7,GCTAGGCA,-0.157
8,ACACCTTC,0.0993
9,ATTCGACA,-0.00217
10,AGGACGGC,-0.242
11,AGCCGCGG,0.064
12,GTGGCGAA,-9e-05
13,GAACAGCA,-0.0355
14,ACAGTCGT,-0.0698
15,CCGAGGAC,0.256
16,GAAACGTA,0.0601
17,ATGACAAC,0.311
18,AAGCGACT,-0.0838
19,GCTCAACA,-0.0111
20,ACTTGCCT,-0.136
21,CACGAAGC,0.00593
22,GATGCGAC,-0.109
23,GTTTCCCA,-0.0664
24,AAAATTCC,0.158
25,CGCGGCAC,0.0728

row,Sequence,PBM E-score
1,AGTTCCGA,0.0704
2,ACTTCGTC,0.0916
3,GCATTTGA,0.051
4,ACGGGGTA,-0.162
5,CCGACTTC,-0.163
6,TGCATAAA,0.18
7,AAGACTCT,0.123
8,GGTTGTCA,0.0708
9,AGGACCTC,0.0644
10,CTAGGACA,0.489
11,ACAATACT,0.325
12,AAGCTTCA,-0.0384
13,CCTATAGG,-0.157
14,CTTGCTGA,-0.166
15,CACCGCCC,-0.12
16,CGAGTGTA,-0.00181
17,CGCGAGTC,-0.0435
18,ACACGGAT,0.17
19,GCAAACCC,-0.225
20,GTAAGGGA,0.107
21,AAACGGGT,0.104
22,CTTAATCA,0.0521
23,ACGACATA,0.319
24,AACGTTGC,-0.0867
25,AGCAGCGA,-0.0353

row,Sequence,PBM E-score
1,GCGCGCCC,-0.0275
2,GCGCACTA,0.0555
3,CTACAACA,0.0452
4,ACTATTGC,-0.0897
5,AAGTGAAA,0.119
6,ATAGACGA,0.0929
7,CCATGAAG,0.0685
8,CTAGCCCA,-0.156
9,ATCAGCTA,-0.0929
10,CGCTCACA,-0.16
11,AGGACCTG,-0.134
12,AGTTCAGA,-0.0982
13,AGGATGTC,0.398
14,GAAACATA,-0.0331
15,CTGGCGGA,-0.218
16,CGATGACA,0.314
17,ACAATAGC,0.00407
18,GTGCGGCA,-0.0318
19,CCGTCTGA,-0.188
20,CCGTTTGA,0.0322
21,ACTTAAGA,0.195
22,ACGTTGGG,-0.00912
